Experimental data as given in the BET-seq Pho4 binding data (Le et al. 2018).
The other results are listed elsewhere or left out. Values were computed here from the reads of four pooled replicates and scatter widely.

The sequences below were run against T1, Pho4 (S. cerevisiae) (UniProt P07270) (assay: relative binding free energy (BET-seq); higher = weaker binding). Conditions: reference: library average.
T1 sequence: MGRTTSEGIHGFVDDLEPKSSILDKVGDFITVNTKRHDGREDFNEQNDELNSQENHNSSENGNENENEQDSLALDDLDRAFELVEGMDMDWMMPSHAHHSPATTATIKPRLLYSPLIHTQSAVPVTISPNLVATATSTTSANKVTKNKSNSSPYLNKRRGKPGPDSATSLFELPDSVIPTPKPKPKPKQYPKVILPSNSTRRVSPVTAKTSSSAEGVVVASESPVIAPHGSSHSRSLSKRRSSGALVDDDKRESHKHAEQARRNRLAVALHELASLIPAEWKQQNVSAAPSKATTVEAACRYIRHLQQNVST

Sequence	relative binding free energy
CTGGTCACGTGTAAAG	0.24 kcal/mol
TTGGTCACGTGGGGGT	0.09 kcal/mol
TGTGGCACGTGTAAAT	0.03 kcal/mol
AGTCTCACGTGTGGGG	0.14 kcal/mol
GGAAGCACGTGAATGG	0.12 kcal/mol
TACGTCACGTGAAGGT	0.34 kcal/mol
GCGTACACGTGTGGTG	0.12 kcal/mol
TTTTCCACGTGTGCTT	0.04 kcal/mol
ATTGGCACGTGGATAA	-0.16 kcal/mol
AGTTGCACGTGTAGTT	0.09 kcal/mol
TTGAACACGTGGAGCG	-0.01 kcal/mol
CATGTCACGTGATAGT	0.09 kcal/mol
TAATGCACGTGGGTGC	-0.32 kcal/mol
TTTGGCACGTGATGGC	-0.03 kcal/mol
TTTGTCACGTGGATCT	0.06 kcal/mol
TATCGCACGTGGGGTT	-0.23 kcal/mol
GTAAGCACGTGTAATG	-0.01 kcal/mol
CGTTACACGTGTGTGT	-0.02 kcal/mol
ACGGACACGTGTTTTG	0.08 kcal/mol
ATCTTCACGTGGGGTT	0.12 kcal/mol
TGCGGCACGTGTGTCT	-0.04 kcal/mol
GGGATCACGTGTATAT	0.18 kcal/mol
TAGCTCACGTGGGTTT	0.13 kcal/mol
CTAGTCACGTGAGAGG	0.18 kcal/mol
TCGGGCACGTGCGAAG	0.05 kcal/mol
TGTATCACGTGTGGGT	0.22 kcal/mol

Sequence	relative binding free energy
ATTTTCACGTGGTGAA	0.16 kcal/mol
GGGTTCACGTGGGGCG	0.2 kcal/mol
TCGAACACGTGGTAGG	0.11 kcal/mol
CTGGCCACGTGTAGTG	-0.05 kcal/mol
CTTATCACGTGGAGGT	0 kcal/mol
TGATGCACGTGGAGGT	0 kcal/mol
ATGTACACGTGTGTCT	0.16 kcal/mol
TGTTTCACGTGAACTT	0.26 kcal/mol
ATGTTCACGTGCGGTG	0.29 kcal/mol
TTTGTCACGTGGTCGA	-0.1 kcal/mol
AACGGCACGTGTGCGT	-0.1 kcal/mol
GAGTGCACGTGAGGGG	0.25 kcal/mol
GGGTGCACGTGGTAAC	-0.08 kcal/mol
GAGTGCACGTGATAGA	0.27 kcal/mol
TGTTGCACGTGCCGAG	-0.08 kcal/mol
TTCTTCACGTGGGCGG	0.15 kcal/mol
AAATTCACGTGATGGT	0.24 kcal/mol
ATAGGCACGTGGGAGT	-0.13 kcal/mol
TTTAGCACGTGCATGG	-0.05 kcal/mol
TATTTCACGTGATCGT	0.3 kcal/mol
CTCTTCACGTGGTGGG	0.22 kcal/mol
GTCGTCACGTGAGGTT	0.2 kcal/mol
TTGAACACGTGCTCGG	0.08 kcal/mol
TGGTGCACGTGCTTCT	-0.07 kcal/mol
AATCGCACGTGTGATG	0.1 kcal/mol
AAAGGCACGTGAGATT	0.21 kcal/mol

Sequence	relative binding free energy
GGTTACACGTGGCTAG	0.06 kcal/mol
AGGGTCACGTGGGACA	0 kcal/mol
TTGGGCACGTGCAGTT	0.02 kcal/mol
GCGGGCACGTGGAGTA	-0.09 kcal/mol
GGGCACACGTGCGGGT	-0.03 kcal/mol
GTGGGCACGTGTTGGC	0.05 kcal/mol
TTGCACACGTGGTTGG	-0.02 kcal/mol
GTGGGCACGTGGAGGT	-0.03 kcal/mol
TAGTTCACGTGTGTGG	0.31 kcal/mol
CCTGGCACGTGTTGAG	-0.01 kcal/mol
TAGGTCACGTGGTATT	0.01 kcal/mol
AGGTACACGTGTAGAT	0.33 kcal/mol
GTTGACACGTGGATAG	0.15 kcal/mol
ATGGACACGTGGCGTG	-0.22 kcal/mol
ACATTCACGTGAGGTT	0.28 kcal/mol
ATATACACGTGGGCGT	-0.17 kcal/mol
TTTGTCACGTGGTCTT	0.16 kcal/mol
ATTATCACGTGGGGTG	-0.07 kcal/mol
GTAAACACGTGTGTTC	0.1 kcal/mol
TGGGCCACGTGATCGT	0.05 kcal/mol
TTGGCCACGTGCAAGG	0.12 kcal/mol
TAGCCCACGTGTGGTT	0.02 kcal/mol
TATCTCACGTGATATG	0.36 kcal/mol
GTTGGCACGTGGGCCA	-0.06 kcal/mol
CTCGGCACGTGGTGCG	-0.17 kcal/mol
GGAATCACGTGGGATG	0.02 kcal/mol

Sequence	relative binding free energy
ATTAACACGTGTTAGG	-0.06 kcal/mol
GGTTACACGTGTTGAA	0.2 kcal/mol
AATTGCACGTGAATTT	0.36 kcal/mol
TGTAGCACGTGTGTTG	-0.06 kcal/mol
ATGGTCACGTGTTTGG	0.11 kcal/mol
GGTGTCACGTGACGTG	0.27 kcal/mol
TGTCTCACGTGAGTAT	0.35 kcal/mol
TGGGCCACGTGCTGTA	-0.19 kcal/mol
GGGGGCACGTGATGCT	-0.05 kcal/mol
GCGGTCACGTGTGGTC	0.23 kcal/mol
TACGTCACGTGATTGG	0.1 kcal/mol
TCTGACACGTGTGTTG	0.06 kcal/mol
TGCGTCACGTGTTAGT	0.1 kcal/mol
ATAGTCACGTGTTCAT	0.11 kcal/mol
GCTGACACGTGGTTTT	0.03 kcal/mol
CGTTTCACGTGTTGGA	0.39 kcal/mol
AGTTGCACGTGAGTTA	0.18 kcal/mol
ACGTGCACGTGGTATT	-0.17 kcal/mol
GGTGTCACGTGGAGAA	0.15 kcal/mol
GCGGTCACGTGAGTTG	0.31 kcal/mol
GGGATCACGTGCTGGT	0.14 kcal/mol
TTTTACACGTGGGCCG	0.06 kcal/mol
CTTGGCACGTGGTGAA	-0.15 kcal/mol
TTGGTCACGTGGATTG	0.16 kcal/mol
TGTTTCACGTGACGAT	0.27 kcal/mol
TGCGGCACGTGCGGAT	-0.14 kcal/mol

Sequence	relative binding free energy
TGATTCACGTGTTAGC	0.17 kcal/mol
GGAGGCACGTGTAGTT	-0.07 kcal/mol
TGGGGCACGTGTCACT	-0.17 kcal/mol
CGCATCACGTGGGTTG	-0.1 kcal/mol
AGATTCACGTGTCGTA	0.35 kcal/mol
AATTGCACGTGTAGTT	0.03 kcal/mol
GGGTACACGTGAAGGC	0.38 kcal/mol
TAGATCACGTGGAAGT	0.18 kcal/mol
TGATTCACGTGCTTGG	0.16 kcal/mol
TGGAACACGTGCATGG	0.02 kcal/mol
GACGGCACGTGAGTAG	0.31 kcal/mol
AGTGCCACGTGTTGAG	-0.05 kcal/mol
ATAATCACGTGTGCAG	0.21 kcal/mol
TAGTTCACGTGGATGA	0.24 kcal/mol
TTTTACACGTGTGCGT	0.17 kcal/mol
ACTGGCACGTGAGTGT	0.16 kcal/mol
GGTTTCACGTGCAGTG	0.3 kcal/mol
AAGTTCACGTGATTTT	0.29 kcal/mol
ATGGGCACGTGGGGAT	-0.13 kcal/mol
GGCTTCACGTGATATG	0.39 kcal/mol
GGGTACACGTGTATCG	0.12 kcal/mol
TGGCCCACGTGGGTAG	-0.19 kcal/mol
TGGTTCACGTGTGTAA	0.25 kcal/mol
CTGGGCACGTGGGGGA	-0.22 kcal/mol
TTTGTCACGTGTCCTG	0.1 kcal/mol
ATGGCCACGTGTAGGA	0.01 kcal/mol

Sequence	relative binding free energy
GTCGTCACGTGTTTCG	0.2 kcal/mol
TGCGCCACGTGGGGTT	-0.15 kcal/mol
CGTATCACGTGGGGTT	0.02 kcal/mol
TGGCGCACGTGTGCGG	-0.15 kcal/mol
GTACACACGTGATGTT	0.22 kcal/mol
AGATGCACGTGGGTCA	0.01 kcal/mol
GGGAGCACGTGTTGAA	0.03 kcal/mol
GTTTACACGTGATTGT	0.23 kcal/mol
GGCTTCACGTGTTGGC	0.28 kcal/mol
AGGGCCACGTGTATAT	0.03 kcal/mol
TGGTCCACGTGTCGGG	-0.07 kcal/mol
TCGGTCACGTGCTCGG	0.13 kcal/mol
TGATTCACGTGGTTGT	0.29 kcal/mol
TATGGCACGTGAGTAC	0.09 kcal/mol
GAATTCACGTGGTAAT	0.34 kcal/mol
TATAACACGTGATAGT	0.11 kcal/mol
TTGCGCACGTGTTGGA	0.06 kcal/mol
TTTTTCACGTGCTAGG	0.15 kcal/mol
GTCGACACGTGGGTTA	-0.04 kcal/mol
CAGTGCACGTGTGTTT	0.09 kcal/mol
TAAGTCACGTGTTTGT	0.07 kcal/mol
GGATTCACGTGTGTGA	0.22 kcal/mol
ATGGTCACGTGCGGTA	0.03 kcal/mol
TGTTACACGTGAGTTA	0.23 kcal/mol
TTTAGCACGTGGCATG	-0.09 kcal/mol
GGACTCACGTGTTAGG	0.19 kcal/mol

Sequence	relative binding free energy
TGAGTCACGTGCAGTG	0.09 kcal/mol
ATCGTCACGTGGATTG	0.09 kcal/mol
TGGGGCACGTGTAATT	0.06 kcal/mol
TAGGGCACGTGTAATT	0.06 kcal/mol
TATTTCACGTGGCGCT	0.23 kcal/mol
CCTGGCACGTGGGGCT	-0.23 kcal/mol
GAATACACGTGTTTTA	0.15 kcal/mol
TATGGCACGTGGTGCG	-0.19 kcal/mol
GTCGGCACGTGTAGGC	0.21 kcal/mol
GATGCCACGTGGGGCT	-0.14 kcal/mol
GCGGACACGTGAGGTT	0.3 kcal/mol
TGGTCCACGTGGACTG	0.07 kcal/mol
ATGGCCACGTGTCGTG	-0.1 kcal/mol
TTTGACACGTGTGGTG	0.08 kcal/mol
TGTAACACGTGAAGTG	0.19 kcal/mol
TTTGGCACGTGTAAGT	0.05 kcal/mol
ATTAACACGTGTTTTT	0 kcal/mol
ATGATCACGTGAATTT	0.29 kcal/mol
AAAGTCACGTGAAGAG	0.52 kcal/mol
CTGGTCACGTGGGCGG	0 kcal/mol
ATGTACACGTGGGAAT	0.03 kcal/mol
GTAATCACGTGTAGGC	0.17 kcal/mol
TAAGTCACGTGGGGGA	-0.02 kcal/mol
TGCATCACGTGCGTGG	-0.01 kcal/mol
TTTAACACGTGGTACA	0.01 kcal/mol
CAGTGCACGTGTTGTA	0 kcal/mol

Sequence	relative binding free energy
AGGTTCACGTGAGGTT	0.38 kcal/mol
AGTGCCACGTGGTCGT	-0.26 kcal/mol
TAGGTCACGTGGTTGG	0.01 kcal/mol
GGTTTCACGTGAGGGT	0.32 kcal/mol
AGATGCACGTGTGGCG	-0.04 kcal/mol
TATCACACGTGTGGTT	0.08 kcal/mol
GAATACACGTGTTGGG	0.06 kcal/mol
GTTGGCACGTGTTTGG	0 kcal/mol
TGAGGCACGTGGGGAG	-0.17 kcal/mol
TATAGCACGTGTAAAG	0.17 kcal/mol
TAATACACGTGTGTGA	-0.06 kcal/mol
CTTTTCACGTGGTCGG	0.26 kcal/mol
TTTCTCACGTGAGGAT	0.26 kcal/mol
GCTGACACGTGTGTTT	0.16 kcal/mol
TGTCGCACGTGCGGGG	-0.06 kcal/mol
TTGTGCACGTGTCGTA	-0.12 kcal/mol
GGACGCACGTGTAGAG	-0.01 kcal/mol
GTGGGCACGTGTGGCT	0.07 kcal/mol
GGTGACACGTGTCTTT	0.19 kcal/mol
GTTAACACGTGCGTGG	-0.01 kcal/mol
ATGTACACGTGTGATT	0.11 kcal/mol
CCTCGCACGTGGGGGG	-0.38 kcal/mol
TGGAGCACGTGGCTCG	-0.15 kcal/mol
CTAAACACGTGGATGG	0.05 kcal/mol
GGGATCACGTGATTGT	0.3 kcal/mol
CTTCGCACGTGAGGGG	0.05 kcal/mol

Sequence	relative binding free energy
TTTCTCACGTGTATTT	0.15 kcal/mol
ATTGTCACGTGTTCAA	0.08 kcal/mol
CGTCACACGTGTGTTG	0.13 kcal/mol
TGCGGCACGTGGCGGC	-0.13 kcal/mol
TGGAACACGTGGTGGG	0.14 kcal/mol
CAAGTCACGTGGTGGT	0.07 kcal/mol
CGGTGCACGTGATGAT	0.17 kcal/mol
GGGGTCACGTGGGAAG	0.14 kcal/mol
GGTGACACGTGTTTAG	-0.03 kcal/mol
GGTTGCACGTGCTCTG	-0.03 kcal/mol
ATCAGCACGTGTGAGT	-0.05 kcal/mol
AAAGTCACGTGTCGTG	0.14 kcal/mol
TGGGTCACGTGTCACT	0.02 kcal/mol
AACGTCACGTGGATGG	0.2 kcal/mol
TGTTGCACGTGAGTTT	0.09 kcal/mol
AATGTCACGTGCGCGG	-0.1 kcal/mol
TTTCTCACGTGGTAGG	0.19 kcal/mol
ATTGTCACGTGTGGAT	0.23 kcal/mol
TAGTGCACGTGAACGG	0.28 kcal/mol
ATTTGCACGTGGTAAA	-0.07 kcal/mol
TCGATCACGTGGAGGG	0.02 kcal/mol
GTATGCACGTGACGGG	0.06 kcal/mol
